From patent publication US20250243260A1 (ALPINE IMMUNE SCIENCES, published 2025)
Where a chain is given by its changes, count along the chain named. Names may count otherwise.

B1: CD80_226 variant CD80 IgV-Fc (K9R, A26T, T28Y, E35A, M47L, A71G) (Fc fusion)
chain: VIHVTKEVREVATLSCGHNVSVEELTQYRIYWQKAKKMVLTMMSGDLNIWPEYKNRTIFDITNNLSIVILGLRPSDEGTYECVVLKYEKDAFKREHLAEVTLSVKADGSGGGGS[omitted - human IgG4 Fc with S228P (EU numbers)]
notes: also called CD80_226-Fc
B2: CD80_227 variant CD80 IgV-Fc (V11W, T28H, D46Q, V68L, L85E) (Fc fusion)
chain: B1 chain with R9K, V11W, T26A, Y28H, A35E, D46Q, L47M, V68L, G71A, L85E
notes: also called CD80_227-Fc
B3: CD80_228 variant CD80 IgV-Fc (E7Q, V11Y, R29H, M47L, V68T) (Fc fusion)
chain: B1 chain with E7Q, R9K, V11Y, T26A, Y28T, R29H, A35E, V68T, G71A
notes: also called CD80_228-Fc
B4: CD80_229 variant CD80 IgV-Fc (V11Y, M47V, A71G, L85E) (Fc fusion)
chain: B1 chain with R9K, V11Y, T26A, Y28T, A35E, L47V, L85E
notes: also called CD80_229-Fc
B5: CD80_230 variant CD80 IgV-Fc (E10G, Q27F, D46N, A71G, D90G) (Fc fusion)
chain: B1 chain with R9K, E10G, T26A, Q27F, Y28T, A35E, D46N, L47M, D90G
notes: also called CD80_230-Fc
B6: CD80_231 variant CD80 IgV-Fc (V11W, T28Y, M47L) (Fc fusion)
chain: B1 chain with R9K, V11W, T26A, A35E, G71A
notes: also called CD80_231-Fc
B7: CD80_232 variant CD80 IgV-Fc (V11F, T28Y, M47L) (Fc fusion)
chain: B1 chain with R9K, V11F, T26A, A35E, G71A
notes: also called CD80_232-Fc
B8: CD80_233 variant CD80 IgV-Fc (V11Y, T28Y, M47L, V68M) (Fc fusion)
chain: B1 chain with R9K, V11Y, T26A, A35E, V68M, G71A
notes: also called CD80_233-Fc
B9: CD80_234 variant CD80 IgV-Fc (V11Y, T28Y, M47L, V68L) (Fc fusion)
chain: B1 chain with R9K, V11Y, T26A, A35E, V68L, G71A
notes: also called CD80_234-Fc
B10: CD80_235 variant CD80 IgV-Fc (V11Y, M47L, A71G) (Fc fusion)
chain: B1 chain with R9K, V11Y, T26A, Y28T, A35E
notes: also called CD80_235-Fc
B11: CD80_236 variant CD80 IgV-Fc (V11Y, T28Y, M47L, A71G) (Fc fusion)
chain: B1 chain with R9K, V11Y, T26A, A35E
notes: also called CD80_236-Fc
B12: CD80_238 variant CD80 IgV-Fc (V11Y, D46E, M47V, V68M) (Fc fusion)
chain: B1 chain with R9K, V11Y, T26A, Y28T, A35E, D46E, L47V, V68M, G71A
notes: also called CD80_238-Fc
B13: CD80_239 variant CD80 IgV-Fc (V11Y, T28Y, D46E, M47V) (Fc fusion)
chain: B1 chain with R9K, V11Y, T26A, A35E, D46E, L47V, G71A
notes: also called CD80_239-Fc
B14: CD80_240 variant CD80 IgV-Fc (V11Y, T28Y, D46E, M47V, V68M) (Fc fusion)
chain: B1 chain with R9K, V11Y, T26A, A35E, D46E, L47V, V68M, G71A
notes: also called CD80_240-Fc
B15: CD80_241 variant CD80 IgV-Fc (E10S, V11F, T28Y, M47L) (Fc fusion)
chain: B1 chain with R9K, E10S, V11F, T26A, A35E, G71A
notes: also called CD80_241-Fc
B16: CD80_242 variant CD80 IgV-Fc (V11F, T28Y, M47L, T62S) (Fc fusion)
chain: B1 chain with R9K, V11F, T26A, A35E, T62S, G71A
notes: also called CD80_242-Fc
B17: CD80_243 variant CD80 IgV-Fc (V11Y, M47L, A71G, Y87R) (Fc fusion)
chain: B1 chain with R9K, V11Y, T26A, Y28T, A35E, Y87R
notes: also called CD80_243-Fc
B18: CD80_244 variant CD80 IgV-Fc (V11Y, T28Y, M47L, Y87R) (Fc fusion)
chain: B1 chain with R9K, V11Y, T26A, A35E, G71A, Y87R
notes: also called CD80_244-Fc
B19: WT CD80 ECD Fc IgG4 (Fc fusion)
chain: VIHVTKEVKEVATLSCGHNVSVEELAQTRIYWQKEKKMVLTMMSGDMNIWPEYKNRTIFDITNNLSIVILALRPSDEGTYECVVLKYEKDAFKREHLAEVTLSVKADFPTPSISDFEIPTSNIRRIICSTSGGFPEPHLSWLENGEELNAINTTVSQDPETELYAVSSKLDFNMTTNHSFMCLIKYGHLRVNQTFNWNTTKQEHFPDNGSGGGGS[omitted - human IgG4 Fc with S228P (EU numbers)]
notes: also called wildtype CD80 ECD-Fc
B20: CD80_185-Fc, variant CD80 IgV-Fc V11Y/T28Y/M47L (Fc fusion)
chain: B1 chain with R9K, V11Y, T26A, A35E, G71A
notes: variant IgV - GSGGGGS - human IgG4 Fc (S228P)
B21: CD80_165-Fc, variant CD80 IgV-Fc V11Y/M47V/F59S/L85E (Fc fusion)
chain: B1 chain with R9K, V11Y, T26A, Y28T, A35E, L47V, F59S, G71A, L85E
notes: as for B20
B22: CD80_166-Fc, variant CD80 IgV-Fc V11Y/M47V/L85E (Fc fusion)
chain: B1 chain with R9K, V11Y, T26A, Y28T, A35E, L47V, G71A, L85E
notes: as for B20
B23: CD80_167-Fc, variant CD80 IgV-Fc V11Y/M42I/M47V/A71G (Fc fusion)
chain: B1 chain with R9K, V11Y, T26A, Y28T, A35E, M42I, L47V
notes: as for B20
B24: CD80_168-Fc, variant CD80 IgV-Fc K9N/E10G/N63S/L85E (Fc fusion)
chain: B1 chain with R9N, E10G, T26A, Y28T, A35E, L47M, N63S, G71A, L85E
notes: as for B20
B25: CD80_169-Fc, variant CD80 IgV-Fc E10G/E35G/D46E/M47V/V68M (Fc fusion)
chain: B1 chain with R9K, E10G, T26A, Y28T, A35G, D46E, L47V, V68M, G71A
notes: as for B20
B26: CD80_170-Fc, variant CD80 IgV-Fc K9N/E10G/E35G/D46E/M47V/V68M (Fc fusion)
chain: B1 chain with R9N, E10G, T26A, Y28T, A35G, D46E, L47V, V68M, G71A
notes: as for B20
B27: CD80_171-Fc, variant CD80 IgV-Fc E7S/H18I/V20L/A26K/M47L/A71N (Fc fusion)
chain: B1 chain with E7S, R9K, H18I, V20L, T26K, Y28T, A35E, G71N
notes: as for B20

Each binder was assayed against T1, human CTLA-4 (human, UniProt P16410 36-223) (assay: flow cytometry on CHO/CTLA-4 cells).
T1 construct: whole, on cells; also called CHO/CTLA-4 cells
T1 sequence (P16410 36-223): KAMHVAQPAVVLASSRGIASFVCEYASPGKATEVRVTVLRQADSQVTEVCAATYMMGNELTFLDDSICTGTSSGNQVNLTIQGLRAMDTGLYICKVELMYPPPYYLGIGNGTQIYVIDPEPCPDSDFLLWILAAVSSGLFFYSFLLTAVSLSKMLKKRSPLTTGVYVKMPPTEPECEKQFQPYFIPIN

| Binder | MFI at 0.8 nM [MFI] | MFI at 4 nM [MFI] | MFI at 20 nM [MFI] | MFI at 100 nM [MFI] | fold change vs WT CD80 at 20 nM [fold] |
| --- | --- | --- | --- | --- | --- |
| B1 | 336000 | 490000 | 555000 | 534000 | 0.67 |
| B2 | 18200 | 59700 | 184000 | 452000 | 0.22 |
| B3 | 20600 | 41100 | 80500 | 156000 | 0.1 |
| B4 | 2230 | 8640 | 30000 | 82100 | 0.04 |
| B5 | 356000 | 597000 | 670000 | 701000 | 0.81 |
| B6 | 370000 | 520000 | 525000 | 549000 | 0.63 |
| B7 | 359000 | 521000 | 563000 | 575000 | 0.68 |
| B8 | 349000 | 559000 | 593000 | 606000 | 0.72 |
| B9 | 288000 | 546000 | 571000 | 567000 | 0.69 |
| B10 | 246000 | 497000 | 619000 | 636000 | 0.75 |
| B11 | 268000 | 483000 | 507000 | 491000 | 0.61 |
| B12 | 44900 | 123000 | 337000 | 498000 | 0.41 |
| B13 | 345000 | 516000 | 565000 | 555000 | 0.68 |
| B14 | 321000 | 531000 | 625000 | 589000 | 0.75 |
| B15 | 253000 | 473000 | 505000 | 491000 | 0.61 |
| B16 | 308000 | 498000 | 520000 | 507000 | 0.63 |
| B17 | 335000 |  | 555000 | 575000 | 0.67 |
| B18 | 306000 | 507000 | 497000 | 527000 | 0.6 |
| B19 | 217000 | 525000 | 829000 | 856000 | 1 |

The binders below were run against T2, human CD28 (endogenously expressed on primary human T cells) (human, UniProt P10747 19-220) (assay: flow cytometry, primary human T cells).
T2 construct: whole, on cells
Method: Binding affinity to CD28 was determined using primary human T cells which endogenously express CD28. Binding to PD-L1 was determined using SCC152 cells transduced with human PD-L1. Binding to CTLA-4 was measured using Chinese hamster ovary (CHO) cells stably transduced to express human CTLA-4.
For staining and analysis by flow cytometry, 75,000 human T cells, SCC152/PD-L1 cells, or CHO/CTLA-4 cells were plated in 96-well round-bottom plates. Cells were spun down and resuspended in staining buffer (PBS (phosphate buffered saline), 1% BSA (bovine serum albumin), 1 mM EDTA, and 0.1% sodium azide) for 20 minutes to block non-specific binding. Afterwards, cells were centrifuged, stain buffer aspirated, and then resuspended in 50 μL of a 1:5 serial dilution of each CD80-Fc candidate variant starting at 100 nM ending at 0.8 nM. Primary staining was performed on ice for 60 minutes, before washing cells in […] staining buffer three times. PE-conjugated anti-human Fc (Jackson ImmunoResearch, USA) was diluted 1:250 in 50 μL staining buffer and added to cells and incubated another 30 minutes at 4° C. Cells were washed two times in 150 μL stain buffer and then fixed in 2% formaldehyde/PBS for 5 minutes at room temperature. Samples were analyzed CytoFLEX LX flow cytometer (Beckman Coulter, USA). Median Fluorescence Intensity (MFI) was calculated for each cell type using the CytExpert software from Beckman Coulter.

| Binder | MFI (anti-human Fc) at 0.8 nM [MFI] | MFI (anti-human Fc) at 4 nM [MFI] | MFI (anti-human Fc) at 20 nM [MFI] | MFI (anti-human Fc) at 100 nM [MFI] | fold change of MFI vs WT CD80 at 20 nM [fold] |
| --- | --- | --- | --- | --- | --- |
| B20 | 220 | 335 | 680 | 1420 | 3.8 |
| B21 | 189 | 195 | 196 | 191 | 1.1 |
| B22 | 179 | 192 | 199 | 205 | 1.1 |
| B23 | 183 | 192 | 207 | 216 | 1.2 |
| B24 | 181 | 187 | 187 | 206 | 1 |
| B25 | 271 | 455 | 756 | 1040 | 4.2 |
| B26 | 269 | 455 | 696 | 888 | 3.9 |
| B27 | 280 | 526 | 1110 | 1870 | 6.2 |
